Source: PubChem BioAssay AID1030 (National Center for Advancing Translational Sciences (NCATS), 2008)
“And” between values parts separate entries of the source, which are not always exact repeats. Equal entries are not always repeated. Hit rate of the full screen: of about 220,000 compounds, about 16,000 (7.3%) were called active. The inconclusive results got no clear call from the source; some entries with a clear call stand among them for comparison. The call rests on the fitted dose curve; in most records, active means well fitted inhibition curve with a large enough effect (not every such curve was filed as active); inconclusive means small, poorly fitted or top-dose-only effect, or another doubt; inactive means no such curve, though single readings can be large or run the other way. Potencies of inconclusive entries are doubtful fits and often do not repeat.

Target: Aldehyde dehydrogenase 1A1 (Homo sapiens) (UniProt P00352)
UniProt P00352, sequence (P00352 whole entry, looked up): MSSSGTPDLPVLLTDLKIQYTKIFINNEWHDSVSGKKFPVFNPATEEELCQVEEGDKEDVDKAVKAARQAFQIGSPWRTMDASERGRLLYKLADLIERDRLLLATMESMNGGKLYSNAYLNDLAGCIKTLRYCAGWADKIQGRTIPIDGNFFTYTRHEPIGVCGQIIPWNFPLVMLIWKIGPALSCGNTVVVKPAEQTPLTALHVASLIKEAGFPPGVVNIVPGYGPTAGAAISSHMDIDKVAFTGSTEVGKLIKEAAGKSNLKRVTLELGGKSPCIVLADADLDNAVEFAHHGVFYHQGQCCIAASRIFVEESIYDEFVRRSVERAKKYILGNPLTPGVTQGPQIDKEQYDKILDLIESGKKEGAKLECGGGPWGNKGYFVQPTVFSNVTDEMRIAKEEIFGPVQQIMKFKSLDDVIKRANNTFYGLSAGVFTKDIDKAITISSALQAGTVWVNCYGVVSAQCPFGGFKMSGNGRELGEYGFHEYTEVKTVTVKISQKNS
Experiment: qHTS Assay for Inhibitors of Aldehyde Dehydrogenase 1 (ALDH1A1);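 on activity, negative = inhibition: plate controls were no enzyme wells and a reference inhibitor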
Conditions: Purified ALDH1A1, NADH fluorescence, propionaldehyde substrate; series mostly up to 75.3 µM; activity, negative = inhibition: at the top concentration
Potency means the concentration at half of the fitted maximal effect; tags describe the fitted curve by direction and shape.

Row | SMILES | Potency | activity, negative = inhibition
1 | CCCc1cc(N2CCN(c3ccccn3)CC2)n2nc(C)c(-c3ccccc3)c2n1 | inconclusive: 28.2 µM [inhibitor, partial curve] | 
2 | O=[N+]([O-])c1ccc(O)c(N=Cc2sc3ccccc3c2O)c1 | inconclusive: 15.8 µM [inhibitor, partial curve] | 
3 | CCC1(c2ccccc2)NC(=S)N(c2ccc(C)cc2)N1 (stereo not given) | inconclusive: 39.8 µM [inhibitor, single point] | 
4 | Cc1ccc(Nc2nnns2)cc1C | active: 3.98 µM | 
5 | CC(Sc1ccc2ccccc2n1)C(=O)O (stereo not given) | inconclusive: 28.2 µM [inhibitor, single point] and inconclusive: 39.8 µM [inhibitor, single point] | 
6 | O=C(COC(=O)c1ccc(O)cc1)Nc1nccs1 |  | inactive: -0.667%
7 | Cc1ccc2oc(-c3ccco3)nc2c1 | inconclusive: 39.8 µM [inhibitor, single point] | 
8 | CCS(=O)(=O)c1ccc2c(c1)N(S(C)(=O)=O)CC(C(=O)NN)O2 (stereo not given) | active: 0.562 µM | 
9 | CCc1ccc(N2CC(C(=O)Nc3ccccc3F)CC2=O)cc1 (stereo not given) |  | inactive: 12.3%
10 | Cc1cccc(S(=O)(=O)Nc2cccc(-c3cn4ccsc4n3)c2)c1 | active: 10 µM | 
11 | Cc1ccsc1/C=N/NC(=O)c1cccc(S(=O)(=O)Nc2ccccc2Cl)c1 |  | inactive: 9.37%
12 | CCOC(=O)N1CCN(C(=O)C(=O)NNC(=O)COc2ccc(Cl)c(C)c2)CC1 | inconclusive: 28.2 µM [inhibitor, single point] | 
13 | COc1ccc(C2=Nn3c(nnc3-c3ccco3)SC2)cc1OC | inconclusive: 35.5 µM [inhibitor, single point] | 
14 | N#CC1=C(N)N(c2ccccc2)C(c2ccco2)C1(C#N)C#N (stereo not given) | inconclusive: 39.8 µM [inhibitor, single point] | 
15 | COC(=O)c1c(NC(=O)CN2C(=O)C(=O)N(CC(C)C)C2=O)sc2c1CCCCC2 | inconclusive: 39.8 µM [inhibitor, single point] | 
16 | O=C(Nn1cnnc1)c1csc2ccccc12 | inconclusive: 28.2 µM [inhibitor, single point] | 
17 | COc1ccc(C(=O)N2CCC3(CCCN(Cc4ccc(C#N)cc4)C3)CC2)cc1 |  | inactive: -10.2%
18 | CC(=O)/C=C1/C(=O)Nc2ccccc21 | active: 3.16 µM | 
19 | N#CC1=C(N)OC2=C(C(=O)CCC2)C12CCC1(CC2)OCCO1 | inconclusive: 12.6 µM [inhibitor, partial curve, poor fit] | 
20 | CCOC(=O)c1ccc(NC(=S)NC2CC(C)(C)NC(C)(C)C2)cc1 | inconclusive: 20 µM [inhibitor, partial curve] | 
21 | CNC(=S)N/N=C1\C(=O)c2cccc3cccc1c23 | inconclusive: 3.55 µM [inhibitor, full curve] | 
22 | O=S(=O)(NCCSc1ccccc1)c1cccs1 | inconclusive: 44.7 µM [inhibitor, single point] | 
23 | CC1CCN(S(=O)(=O)c2ccc3c(c2)c(=O)c(C(=O)NCc2ccccc2Cl)cn3C)CC1 | inconclusive: 39.8 µM [inhibitor, single point] | 
24 | Sc1ccc2ccccc2c1CNCc1ccccc1 |  | inactive: -8.44% [at 13.5 µM]

Row | SMILES | Potency | activity, negative = inhibition
25 | CC1=CSC2=NC(=O)/C(=C\c3cccn3-c3ccccc3)C(=N)N12 | active: 22.4 µM | 
26 | O=C(N/N=C/c1ccccc1C(=O)O)c1ccc(COc2cccc3cccnc23)cc1 | inconclusive: 35.5 µM [inhibitor, single point] | 
27 | O=C(CSc1nc2ccsc2c(=O)n1-c1ccccc1)N1CCCC1 | inconclusive: 28.2 µM [inhibitor, single point] | 
28 | CCCCC(=O)NC(c1cccs1)c1cc(Cl)c2cccnc2c1O (stereo not given) | active: 7.08 µM | 
29 | Cc1ccc(C(=O)CSC2=C(C#N)C(c3ccco3)C3=C(CC(C)(C)CC3=O)N2)cc1 (stereo not given) | active: 12.6 µM | 
30 | CN(C)c1nc(-c2cccs2)cc(C(F)(F)F)c1C#N | inconclusive: 39.8 µM [inhibitor, single point] | 
31 | COc1cc(-c2[nH]ncc2CN2CCN(Cc3cccs3)CC2)cc(OC)c1OC | inconclusive: 44.7 µM [inhibitor, single point] | 
32 | CN(Cc1cnn(C)c1)C(=O)c1cc2ccccc2oc1=O |  | inactive: -0.171%
33 | CN1CC(c2ccc(Cl)c(Cl)c2)[C@@]2(COc3ccccc3C2=O)[C@@]12C(=O)Nc1ccccc12 (stereo not given in full) |  | inactive: 0.627%
34 | COc1ccc(-c2nc3nc(C)cc(C)n3n2)cc1 | inconclusive: 20 µM [inhibitor, partial curve] | 
35 | CCC(=O)N(Cc1cc2c(C)ccc(C)c2[nH]c1=O)C1CCCCC1 | inconclusive: 39.8 µM [inhibitor, single point] | 
36 | O=C(c1cc([N+](=O)[O-])ccc1Cl)N1CCN(c2ccccc2)CC1 | inconclusive: 39.8 µM [inhibitor, single point] | 
37 | c1ccc(CSc2ncnc3c2cnn3Cc2ccccc2)cc1 | inconclusive: 20 µM [inhibitor, partial curve] | 
38 | C=CCn1c(SCC(=O)NC(=O)c2cccc([N+](=O)[O-])c2)nnc1-c1ccccc1 | inconclusive: 39.8 µM [inhibitor, single point] | 
39 | CC1CCc2sc(C(=O)OCC(=O)NCc3ccccc3)cc2C1 (stereo not given) |  | inactive: 3.65%
40 | COc1ccc(C(=O)N2CCC3(CC2)CCN(c2ccccc2)CC3)cc1 | inconclusive: 39.8 µM [inhibitor, single point] | 
41 | Cc1[nH]c2ccccc2c1-c1nc2ccccc2[nH]1 | inconclusive: 25.1 µM [inhibitor, partial curve] | 
42 | CC(C)Sc1nc2c(c(=O)n(C)c(=O)n2C)n1Cc1ccc(Cl)cc1 | active: 8.91 µM | 
43 | Nc1ncnc2nc(-c3ccc(C[P+](c4ccccc4)(c4ccccc4)c4ccccc4)cc3)[nH]c12 | inconclusive: 7.08 µM [inhibitor, single point] | 
44 | O=S(=O)(c1ccc(F)c2ccccc12)N1CCCCC1 | inconclusive: 25.1 µM [inhibitor, single point] | 
45 | Cc1cc(NC(=O)COC(=O)c2ccccc2[N+](=O)[O-])no1 |  | inactive: -2.2%
46 | CC[C@H]1CN(C)[C@H]2Cc3c([nH]c4ccccc34)C(=O)C[C@H]1[C@H]2C(=O)OC | inconclusive: 8.91 µM [inhibitor, single point] | 
47 | Cc1cccc(NC(=O)C2CCCN2C(=O)OCC(C)C)c1 (stereo not given) | inconclusive: 25.1 µM [inhibitor, single point] | 
48 | CCCCC(CC)CNC(=O)C(=O)C1C(=O)Nc2ccccc21 (stereo not given) | active: 2 µM | 

Row | SMILES | Potency | activity, negative = inhibition
49 | CCOCC(=O)Nc1nc2c(s1)C(=O)CC(C)(C)C2 | inconclusive: 5.01 µM [inhibitor, partial curve] | 
50 | CCOC(=O)c1cc(CC)sc1/N=C/c1c(O)ccc2ccccc12 | inconclusive: 25.1 µM [inhibitor, single point] | 
51 | O=C(Cn1ccc(C(F)(F)F)n1)N/N=C/c1ccc(N2CCOCC2)cc1 | inconclusive: 28.2 µM [inhibitor, partial curve] | 
52 | COc1ccc(NC(=O)NS(=O)(=O)c2ccc(C)cc2)c(OC)c1 | inconclusive: 39.8 µM [inhibitor, single point] | 
53 | COc1ccc(C2CC(c3cccs3)=NN2C(=O)COC(=O)C2CCCCC2)cc1OC (stereo not given) | inconclusive: 37.7 µM [inhibitor, single point] | 
54 | O=C(NCc1ccccc1)C1=C[C@H](c2coc3ccccc3c2=O)C[C@H](OCCCCO)O1 |  | inactive: 2.37%
55 | CCOC(=O)N1CCN(C(=S)NC(=O)c2ccc(F)c(F)c2)CC1 | inconclusive: 39.8 µM [inhibitor, single point] | 
56 | Cc1occc(=O)c1OC(=O)Nc1ccc(Cl)c(Cl)c1 |  | inactive: 8.19%
57 | CC(C)C(=O)N1CCN(c2ccc(NC(=O)c3ccc4c(c3)OCCO4)cc2)CC1 | inconclusive: 35.5 µM [inhibitor, single point] | 
58 | CCn1c(SCC(=O)c2ccc(Cl)cc2)nnc1-c1ccoc1C | inconclusive: 35.5 µM [inhibitor, single point] | 
59 | Cc1cc(OCC(=O)N(C)C)c2c(-c3ccccc3)cc(=O)oc2c1 | inconclusive: 20 µM [inhibitor, partial curve] | 
60 | CC(=O)Nc1ccc(S(=O)(=O)N2CCSC2c2ccco2)cc1 (stereo not given) | inconclusive: 39.8 µM [inhibitor, single point] | 
61 | N#C/C(=C\c1ccc(Oc2ccc(C(F)(F)F)cc2[N+](=O)[O-])cc1)c1nc2ccccc2[nH]1 |  | inactive: 4.9%
62 | CCCN(C(=O)c1cccs1)c1nnc(-c2ccncc2)s1 | inconclusive: 35.5 µM [inhibitor, single point] | 
63 | Cc1cc(NC(=O)CN(C)CCOc2ccccc2)ccc1Br | inconclusive: 31.6 µM [inhibitor, single point] | 
64 | CCCC(=O)Nc1nnc(-c2cccc(OCC)c2)s1 | inconclusive: 20 µM [inhibitor, single point] | 
65 | CC(Cc1ccccc1)N/C=C1\CC(=O)NC1=O (stereo not given) |  | inactive: 4.53%
66 | Cc1ccc(Nc2nnc(SCC(=O)NCCN3C(=O)CSC3=O)s2)cc1 | inconclusive: 44.7 µM [inhibitor, single point] | 
67 | COc1cc(C(=O)OCCC(C)C)cc(OC)c1O | inconclusive: 17.8 µM [inhibitor, partial curve] | 
68 | Cc1ccc(C(C)n2cc(C(=O)NCCN3CCN(C)CC3)nn2)cc1 (stereo not given) | inconclusive: 17.8 µM [inhibitor, partial curve] | 
69 | CCOC(=O)N1CCC(n2c(SCC(=O)NCc3ccco3)nc3ccsc3c2=O)CC1 | inconclusive: 28.2 µM [inhibitor, partial curve] | 
70 | CC(C)Cc1nc(N2CCC(C(N)=O)CC2)c2nnn(Cc3ccccc3)c2n1 |  | inactive: 0.854%
